Measured values published in PubChem BioAssay AID652106 (National Center for Advancing Translational Sciences (NCATS), 2013).
Several values for one entry are separate records, joined by “and”; a condition that tells them apart may be missing. Equal entries are not always repeated. The campaign covered roughly 370,000 compounds. About 500 (0.14%) were called active. This list was built around the results that the source calls inconclusive (neither active nor inactive); the mix of calls is not that of the screen. The call rests on the fitted dose curve; in most records, active means well fitted activation curve with a large enough effect; inconclusive means small, poorly fitted or top-dose-only effect; inactive means no such curve, though single readings can be large or run the other way. A potency beside an inconclusive call is a rough fit, not a confirmed value.

Test: qHTS of alpha-syn Inhibitors; further: nearly all actives have a fitted effect of over 65% in size; on growth rescue (activation): % of control where 0% means no effect
Conditions: Yeast expressing alpha-synuclein, BacTiter-Glo, 24 h; Potency: growth rescue unless noted; growth rescue (activation): at 46.1 µM (top of the series) unless noted
Summary of the method: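 Rescue of yeast growth: cells expressing toxic alpha-synuclein, induced in galactose at OD600 0.02, incubated with compound 24 h at 30 C. ATP luminescence quantified growth; inhibitors of toxicity appear as activators.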
Potency means the concentration at half of the fitted maximal effect; tags describe the fitted curve by direction and shape.

Potency, active:
O=C(/C=C/c1ccc(O)c(O)c1)OCCc1ccccc1 3.16 µM and 5.17 µM

Potency, inconclusive:
O=S(=O)(Nc1cccc2ncccc12)c1cccs1 25.1 µM [activator, single point]
O=C(NCc1ccc2c(c1)OCO2)C(=O)NCC1OCCN1S(=O)(=O)c1ccc(Br)cc1 (stereo unspecified) 3.55 µM [activator, single point]
Cc1cccc(N=Nc2ccc(O)c3ncccc23)c1 5.62 µM [activator, single point]
CCC(C)(C)c1ccc(Oc2ccc(N)cc2)cc1 14.1 µM [activator, partial curve]
O=C(C[C@H]1CC[C@@H](NC(=O)Nc2ccc3c(c2)OCO3)[C@@H](CO)O1)NCc1ccccc1 5.62 µM [activator, single point]
c1ccc2c3c([nH]c2c1)-c1[nH]ncc1CC3 12.6 µM [activator, single point]
Cc1csc(NC(=O)CSc2ccc(-c3ccccn3)nn2)n1 28.2 µM [activator, single point]
Cc1ccc(-c2nc(C)c(CCNS(=O)(=O)c3ccccc3F)s2)cc1 14.1 µM [activator, single point]
COc1ccc(C(CC(=O)c2ccc(C)cc2)Sc2ccccc2N)cc1 (stereo unspecified) 22.4 µM [activator, partial curve]
S=C(NCC1CCCO1)N1CCN(c2ccc(Cl)c(Cl)c2)CC1 (stereo unspecified) 35.5 µM [activator, single point]
COc1ccc(N(C(=O)c2snc(C(N)=O)c2N)C(C(=O)NCc2ccccc2)c2ccc(F)cc2)c(OC)c1 (stereo unspecified) 3.55 µM [activator, single point]
CC1CN(C(=O)CCC(=O)NC2CCN(Cc3ccccc3)CC2)c2ccccc2O1 (stereo unspecified) 5.62 µM [activator, single point]
Cn1c(=O)c2ncn(CC(=O)NCCOc3ccc(C(C)(C)C)cc3)c2n(C)c1=O 31.6 µM [activator, single point]
COc1cccc(/C=N/NC(=O)CSc2ccccc2C)c1O 35.5 µM [activator, single point]
CC(=O)Oc1cccc(/C=c2\sc3nc(-c4ccco4)nn3c2=O)c1 22.4 µM [activator, single point]
COc1ccccc1S(=O)(=O)Cc1ccc(C(=O)N2CCN(c3ccccn3)CC2)o1 3.16 µM [activator, single point]
CCCCCCSc1ccc([C@H]2N[C@@](C)(C(=O)OC)[C@H]3C(=O)N(CC)C(=O)[C@@H]23)cc1 22.4 µM [activator, single point]
Cc1ccc(NC(=O)CN(C)S(=O)(=O)c2cccs2)cc1F 3.98 µM [activator, single point]
Cc1nc2scc(C)n2c(=O)c1S(=O)(=O)Nc1ccc(N2CCOCC2)c(Cl)c1 3.16 µM [activator, partial curve, poor fit]
COc1ccccc1NC(=O)CN1C(=O)NC2(CCCc3ccccc32)C1=O (stereo unspecified) 3.98 µM [activator, single point]
COc1cccc(NC(=S)N(CCCN2CCOCC2)Cc2cn(C)c3ccccc23)c1 5.62 µM [activator, single point]
CC1OC(C(C)(C)C)Cc2[nH][nH]c(=O)c21 (stereo unspecified) 5.62 µM [activator, single point]
O=C1NC(Nc2nc3ccccc3s2)(C(F)(F)F)C(=O)N1C1CCCCC1 (stereo unspecified) 11.2 µM [activator, partial curve]
CCN(CC)c1ncnc2c1ncn2[C@H]1CN(Cc2ccc(-c3ccccc3)cc2)C[C@@H](CO)O1 12.6 µM [activator, partial curve]
Cc1ccc(F)cc1C(=O)N1CCCC(c2cc(C(=O)Nc3ccccc3)no2)C1 (stereo unspecified) 25.1 µM [activator, single point]
Cc1onc(-c2ccccc2Cl)c1C(O)c1ccc(F)cc1 (stereo unspecified) 15.8 µM [activator, single point]
O=C(c1ccc(N2CCN(C(=O)c3ccc(F)c(F)c3)CC2)cc1)c1cccc(F)c1 12.6 µM [activator, single point]
Cc1ccc(CSc2nnc(CCNC(=O)OC(C)(C)C)o2)cc1 31.6 µM [activator, single point]
CC(C)C1C(=O)N(Cc2cn(CCC3OCCO3)nn2)CCS(=O)(=O)N1Cc1ccc(-c2ccccc2Cl)cc1 (stereo unspecified) 28.2 µM [activator, single point]
CN(CC(=O)N1CCc2ccccc2C1)c1ccccc1 15.8 µM [activator, partial curve]
C=C(C)C(=O)OCC(O)COc1ccc(C(C)(C)c2ccc(OCC(O)COC(=O)C(=C)C)cc2)cc1 (stereo unspecified) 35.5 µM [activator, single point]
CCS(=O)(=O)N1Cc2ccccc2CC1C(=O)Nc1nc2ccc(F)cc2s1 (stereo unspecified) 35.5 µM [activator, single point]
CCOC(=O)C1=C(COC(=O)C(CC)c2ccccc2)NC(=O)NC1C (stereo unspecified) 5.62 µM [activator, single point]
COc1cc(OC)c(/C=C/c2ccncn2)c(OC)c1 31.6 µM [activator, single point]
COC(=O)CSc1nc2c(c(-c3ccco3)c1C#N)CCCC2 22.4 µM [activator, single point]
CC1(C)COC(=S)N1CCC#N 31.6 µM [activator, single point]
COC(=O)CCCCCN1C(=O)NC(c2ccccc2)C(C(=O)OCc2ccccc2)=C1C (stereo unspecified) 0.562 µM [activator, partial curve, poor fit]
Cc1cccc(OCC(=O)Nc2ccc(C(=O)Nc3ccccc3C(=O)O)cc2)c1 5.62 µM [activator, single point]
COc1ccc(-c2c(-c3ccccc3OC)oc3ccccc23)cn1 6.31 µM [activator, single point]
O=C1c2cccc3c(Cl)ccc(c23)C(=O)N1O 15.8 µM [activator, partial curve]
Cc1cccn2c(=O)c3cc(C(=O)NCCN4CCOCC4)c(=N)n(CCCN4CCOCC4)c3nc12 5.62 µM [activator, single point]
COC(=O)C1CSC(C)(C)C(=O)N1 (stereo unspecified) 14.1 µM [activator, single point]
O=S(=O)(NC1CCCC1)c1ccc(S(=O)(=O)N(Cc2cccs2)CC2CCCO2)cc1 (stereo unspecified) 25.1 µM [activator, single point]
C[C@H]1CN([C@@H](C)CO)C(=O)CCCn2nncc2CO[C@@H]1CN(C)Cc1ccccc1C(F)(F)F 5.62 µM [activator, single point]
O=S(=O)(NCc1ccccc1)c1ccccc1NCCc1ccccc1 12.6 µM [activator, single point]
N#Cc1c(N2CCN(C(=O)c3ccccc3)CC2)nc(-c2ccccc2)c2c1CCCC2 5.62 µM [activator, single point]
CCc1ccc2c(c1)NC(=O)C2(C)Cc1ccc(F)cc1 (stereo unspecified) 35.5 µM [activator, single point]
CCCCn1cnc2c(c(-c3ccccc3)c(-c3ccccc3)n2Cc2ccco2)c1=N 28.2 µM [activator, single point]
COc1cc(NC(=O)COc2ccccc2[N+](=O)[O-])ccc1NC(=O)c1cccs1 35.5 µM [activator, single point]
O=C(CSCC(=O)OCn1nnc2ccccc2c1=O)Nc1ccc(Cl)cc1 11.2 µM [activator, partial curve]

Growth rescue (activation), inactive:
O=C(/C=C/c1ccc(Cl)cc1)Nc1cc(S(=O)(=O)N2CCOCC2)ccc1N1CCOCC1 1.45%
CCSc1nc(N)nc(-c2cccs2)c1C#N -17.7%
O=C(c1cnn2c(C(F)(F)F)cc(-c3ccco3)nc12)N1CCCc2ccccc21 -2.71%
Cc1cc(C)c(C#N)c(SCc2ccccc2F)n1 0.935%
CC(=O)Nc1nn(CC(C)C)c2nc3ccc(C)cc3cc12 0.329%
O=C1C(=O)c2c(C(=O)c3ccccc3)coc2-c2ccccc21 -61.4%
O=C(CCCCCN1C(=O)c2ccccc2C1=O)NCc1ccco1 1.13%
Nc1nnc(-c2ccco2)s1 1.58%
Cc1ccc(S(=O)(=O)N(CC(=O)N2CCC(C(N)=O)CC2)Cc2ccc(F)cc2)cc1 -4.76%
CCOC(=O)n1c(=O)n(Cc2ccccc2Cl)c2ccccc21 10.7%
COc1ccc(NS(=O)(=O)c2cc(NC(=O)c3ccc(C)s3)ccc2N2CCOCC2)cc1 -0.819%
Cc1[nH]c(=S)c(C#N)c(C)c1CC(=O)c1ccc(Br)cc1 -3.77%
CCOC(=O)Cn1c(-c2cccnc2Cl)nc2cc(C)c(C)cc21 -6.92%
CCOC(=O)c1ccccc1NC(=O)CSc1ncc(C(=O)OCC)c(N)n1 -5.24%
O=C(CSc1c[nH]c2ccccc12)NCc1ccc2c(c1)OCO2 -1.2%
